# Measured values taken from PubChem BioAssay AID1345083 (National Center for Advancing Translational Sciences (NCATS), 2018).
# About 6,200 (6.6%) of roughly 94,000 compounds were called active. The inconclusive results got no clear call from the source; some entries with a clear call stand among them for comparison. Calls follow the shape of the dose curve; as a rule, active = well fitted inhibition curve with a large enough effect; inconclusive = small, poorly fitted or top-dose-only effect; inactive = flat fitted curve, though single readings scatter. A potency beside an inconclusive call is a rough fit, not a confirmed value.
# Test: Cytotoxic Profiling in HEK 293 Cell Line of Diverse Libraries Using Quantitative High-Throughput Screening; also: nearly all actives have a fitted effect of over 60% in size
# Settings: HEK 293 viability, ATP luminescence (CellTiter-Glo), 48-72 h; activity change, negative = cytotoxicity: at 115 µM (top of the series) unless noted; series mostly up to 115 µM
# Method in brief: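 Cells seeded first (HEK 293, 250 cells/well), then compound added by pintool. Incubation ran 48 or 72 hr at 37 degree Celsius. CellTiter-Glo was added and luminescence imaged after 10 min at room temperature.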
# % is scaled to controls: 0 for no effect and ±100 for the full control effect; potency is read from the fitted curve at half-maximal effect; tags tell the direction and shape of the fitted curve.
SMILES,Potency,"activity change, negative = cytotoxicity",outcome
O=C1c2c(nc(COc3ccc(F)cc3)n2Cc2ccccc2)NCCN1CCOc1ccccc1,"inconclusive: 35.5 µM [inhibitor, full curve, poor fit]",,
CCCN1CCCC2(CCN(c3cc(C)c4cccc(OC)c4n3)C2)C1=O (stereo not given),"inconclusive: 56.2 µM [inhibitor, partial curve, poor fit]",,
O=C(c1ccc(C(F)(F)F)cc1)N1CCC(C(=O)N2CCC(c3nc4ccncc4[nH]3)C2)CC1 (stereo not given),,inactive: -11.9%,
Cc1noc(C)c1[S+](=O)([O-])N1CCn2c(nn(-c3cccc(Cl)c3)c2=O)C1,,inactive: -27%,
CC1=C[C@@H](CN2CCOCC2)[C@H](C(C)C)C[C@H]1Cc1nnc(-c2ccc([N+](=O)[O-])cc2)o1,active: 39.8 µM,,
CCOC(=O)c1ccc(NC(=O)N2Cc3[nH]cnc3C[C@H]2c2nc(-c3ccc(OC(F)(F)F)cc3)no2)cc1,"inconclusive: 22.4 µM [inhibitor, full curve, poor fit]",,
COc1ccc(C(=O)N2CCN3CCS(=O)(=O)N(C4CC4)C(=O)C3C2)c(OC)c1 (stereo not given),,inactive: 1.84%,
O=C(N1CCN(c2ncncn2)CC1)N(c1ccccc1)c1ccccc1,"inconclusive: 89.1 µM [inhibitor, single point]",,
COc1cccc(CN2CCC3(CC2)NCCc2c3[nH]c3ccc(OC)cc23)c1,"inconclusive: 15.8 µM [inhibitor, full curve, poor fit]",,
COc1ncc(-c2cccc(COc3ccc4c(cnn4CC[S+](C)(=O)[O-])c3)c2)cn1,active: 70.8 µM,,
Cc1cccc(OCC(=O)N2CCCC(c3noc(COc4ccccc4)n3)C2)c1 (stereo not given),"inconclusive: 56.2 µM [inhibitor, partial curve, poor fit]",,
O=C(NCc1ccc(F)cc1F)c1ccc(N2CC3CC(C2)[C@H]2CCCC(=O)N2C3)nc1 (stereo not given in full),,inactive: -2.17%,
O=C(C1CCN(c2nccc(Nc3ccccc3Cl)n2)CC1)N1CCC(Cc2ccccc2)CC1,active: 25.1 µM,,
COc1ccccc1-c1cccc(C(=O)N2CCC[C@H]2C(=O)NCc2ccccc2F)c1,"inconclusive: 50.1 µM [inhibitor, partial curve, poor fit]",,
O=C1[C@H]2CN(Cc3ccc(F)c(Cl)c3)C[C@H]2C(=O)N1CCc1ccccc1,"inconclusive: 50.1 µM [inhibitor, partial curve, poor fit]",,
O=S(=O)(c1ccccc1)N1CCC(F)(c2nc(Cc3ccccc3)no2)CC1,active: 44.7 µM,,
O=C(C1CCCCC1)N1CCC(Cc2ccc(CO)cc2)CC1,"inconclusive: 50.1 µM [inhibitor, partial curve, poor fit]",,
COc1ccc(NC(=O)c2ccc3c(c2)N(C)C2CCCN2C3=O)cc1OC (stereo not given),"inconclusive: 89.1 µM [inhibitor, single point]",,
COc1ccccc1-c1ccnc(N[C@H]2CO[C@H]3[C@@H]2OC[C@@H]3NC(=O)c2ccc(C(F)(F)F)cc2)n1,"inconclusive: 50.1 µM [inhibitor, partial curve, poor fit]",,
COC1CCOC2(CCN(C(=O)CCCc3ccccc3)CC2)C1 (stereo not given),,inactive: -18.6%,
Cc1cc2nc3n(c(=O)c2n1CC(=O)NCCCc1ccccc1)CCCCC3,"inconclusive: 79.4 µM [inhibitor, single point]",,
CN1c2cc(C(=O)Nc3ccc(Cl)c(F)c3)ccc2C(=O)N2CCCCCC21 (stereo not given),"inconclusive: 50.1 µM [inhibitor, partial curve, poor fit]",,

SMILES,Potency,"activity change, negative = cytotoxicity",outcome
N#Cc1cccnc1-c1cccc(C(=O)NCCNC(=O)c2ccccc2Cl)c1,,inactive: -9.7%,
CC(C)CCN1CCC(N(C(=O)NCCc2ccccc2)C2CCOCC2)CC1,"inconclusive: 89.1 µM [inhibitor, single point]",,
Cc1ccc(C(=O)N2CCC(n3cc(-c4nc(C5CC5)no4)nn3)C2)cc1 (stereo not given),"inconclusive: 28.2 µM [inhibitor, partial curve, poor fit]",,
O=C([C@H]1C[C@H](Oc2ccccc2)CN1C(=O)c1ccc(F)cc1)N1CCOCC1,,inactive: -22.5%,
Cc1ccc(C2NC(=O)N(CC(=O)Nc3ccc4c(c3)OCO4)C3=C2C(=O)OC3)cc1 (stereo not given),"inconclusive: 35.5 µM [inhibitor, full curve, poor fit]",,
Cc1ccccc1N(C)C1CN(C(=O)c2ccccn2)C1,active: 79.4 µM,,
CNC(=O)[C@@H]1C[C@@H](n2cc(CN(C)C(=O)c3cc4ccccc4s3)nn2)CN1,,inactive: -15.9%,
Cn1cccc1-c1noc(C2CCN(Cc3noc(-c4ccccc4)n3)C2)n1 (stereo not given),"inconclusive: 50.1 µM [inhibitor, partial curve, poor fit]",,
CC(C)(C)n1ccc(C(=O)N2CCN(c3cccc(Cl)c3)C(=O)C2)c1,"inconclusive: 14.1 µM [inhibitor, partial curve, poor fit]",,
Cc1ccc(S(=O)(=O)N2CCCN(C)c3ccccc32)cc1Cl,"inconclusive: 50.1 µM [inhibitor, partial curve, poor fit]",,
COc1ccc(C(=O)NC2CCN(c3cnn(CC4CC4)c(=O)c3)CC2)cc1,,inactive: 4.41%,
COc1ccc(C(CC(=O)N(C)Cc2cnc3ccccn23)c2ccccc2)cc1 (stereo not given),"inconclusive: 44.7 µM [inhibitor, partial curve]",,
Cc1cc(F)ccc1-c1[nH]nc2ncc(-c3ccnn3C)nc12,"inconclusive: 28.2 µM [inhibitor, full curve]",,
COc1ccc(NC(=O)c2cc(-c3ccc[nH]3)n[nH]2)cc1F,,inactive: 5.14%,
CN1CCN(c2cc(=O)c3ccnc(-c4cn[nH]c4)c3o2)CC1,,inactive: -5.39% [at 172 µM],
COc1cc(CN2CC[C@H](c3nc4ccccc4o3)C2)cc(OC)c1OC,active: 70.8 µM,,
O=C1NCc2ccccc2CC12CCCN2Cc1cccc(OC(F)(F)F)c1 (stereo not given),"inconclusive: 50.1 µM [inhibitor, partial curve, poor fit]",,
CN1C(=O)C2(CCN(C(=O)CC3CCCC3)CC2)c2ccccc21,"inconclusive: 89.1 µM [inhibitor, single point]",,
O=C1N(C2CCNCC2)C(c2ccncc2)C12CCCCC2 (stereo not given),,inactive: -6.22%,
COCCNC(=O)c1nc(-c2ccc(Cl)cc2)c2ccccn12,"inconclusive: 70.8 µM [inhibitor, partial curve, poor fit]",,
O=C(CCC1CCN(C(=O)c2ccccc2)CC1)NCCCN1CCCc2ccccc21,"inconclusive: 56.2 µM [inhibitor, partial curve, poor fit]",,
COC(=O)[C@@H]1Cc2ncn(Cc3ccc(OC)cc3)c2CN1Cc1ccc(OC)cc1,"inconclusive: 35.5 µM [inhibitor, partial curve, poor fit]",,

SMILES,Potency,"activity change, negative = cytotoxicity",outcome
CCc1ccc(NC(=O)N2C[C@@H](F)C[C@H]2C(=O)N2CCCCC2)cc1,"inconclusive: 89.1 µM [inhibitor, single point]",,
CNC(=O)[C@H]1CN(C(=O)CO)[C@]2(C)C(=O)N(CC3CC3)c3ccccc3[C@H]12,,inactive: -14% [at 57.5 µM],
COC1C(=O)N(CC2CC2)C12CCN(S(=O)(=O)Cc1ccccc1F)CC2 (stereo not given),,inactive: -11.4%,
CC(C)N1CC(C(=O)N2CCN(c3ncccn3)CC2)NC1=O (stereo not given),,inactive: -2.05% [at 172 µM],
O=C(c1cnccn1)N1CC[C@H](c2nc3ccccc3o2)C1,,inactive: -3.18% [at 172 µM],
CCCS(=O)(=O)N[C@H]1C[C@@H](c2nc(-c3ccc(OC)cc3)no2)N(C)C1,"inconclusive: 100 µM [inhibitor, partial curve, poor fit]",,
O=C(c1cscn1)N1CCCC2(CN[S+](=O)([O-])c3cccnc3O2)C1 (stereo not given),,,inactive
C[S+](=O)([O-])N1CC2(Cc3ccccc31)CN(C(=O)c1cccc(Cl)c1)C2,"inconclusive: 31.6 µM [inhibitor, partial curve, poor fit]",,
CCNC(=O)C1CC(c2ccc(CC)cc2)CN(C(=O)c2ccoc2)C1 (stereo not given),"inconclusive: 89.1 µM [inhibitor, single point]",,
Cc1cnc(CC2CCCN(C(=O)Cc3cccc(F)c3)C2)n1C(C)C (stereo not given),,inactive: -15%,
COc1ccc(-c2cn(C)c(=O)n3cc(CN(C)C)nc23)c(C(F)(F)F)c1,"inconclusive: 79.4 µM [inhibitor, partial curve]",,
CN(c1ccccc1)c1ccc2ncn(C3CC3)c(=O)c2n1,"inconclusive: 112 µM [inhibitor, partial curve]",,
CC(=O)N1CCC2(CC1)CN(C(=O)c1ccc(N)nc1)Cc1ccccc1O2,,,inactive
COCC(=O)NC[C@H]1O[C@H](Cc2cc(CN(C)C)on2)CC[C@@H]1O,"inconclusive: 126 µM [inhibitor, single point]",,
O=C1CCCCN1CC(=O)N1CCCC(c2ccccc2)(c2ccccc2)C1,"inconclusive: 39.8 µM [inhibitor, full curve, poor fit]",,
O=C(O)C1c2ccccc2CC(=O)N1Cc1ccccc1 (stereo not given),,inactive: 7.25%,
O=C(c1ccc(F)cc1)N1CCC(n2cc(-c3nc(C4CC4)no3)nn2)C1 (stereo not given),"inconclusive: 89.1 µM [inhibitor, single point]",,
O=C(NCc1ccc(C(F)(F)F)cc1)c1ccc2nnc(C3CCOCC3)n2c1,,inactive: -15.2%,
COc1ccc2nc3n(c2c1)[C@@H](CNCc1ccc2c(c1)OCO2)COC3,"inconclusive: 89.1 µM [inhibitor, partial curve, poor fit]",,
COc1ccc(-c2ccccc2C(=O)N2CCC(NC(=O)c3ccc(C(F)(F)F)cc3)CC2)nn1,"inconclusive: 89.1 µM [inhibitor, single point]",,
COc1ccc(Nc2ccnc(N3CCC(NC(=O)C(C)(C)C)CC3)n2)cc1,"inconclusive: 50.1 µM [inhibitor, partial curve, poor fit]",,
